# Measured values reported in the supplement of paper PMC3334620.
# Whole data set: some 33,000 sequences, median “E-score (-0.5 to 0.5)” near -0.012, cut for the highest 2% near 0.27. This is one part of the list.
# Molecular target: T1, Vhr1 (UniProt P40522)
# T1 sequence: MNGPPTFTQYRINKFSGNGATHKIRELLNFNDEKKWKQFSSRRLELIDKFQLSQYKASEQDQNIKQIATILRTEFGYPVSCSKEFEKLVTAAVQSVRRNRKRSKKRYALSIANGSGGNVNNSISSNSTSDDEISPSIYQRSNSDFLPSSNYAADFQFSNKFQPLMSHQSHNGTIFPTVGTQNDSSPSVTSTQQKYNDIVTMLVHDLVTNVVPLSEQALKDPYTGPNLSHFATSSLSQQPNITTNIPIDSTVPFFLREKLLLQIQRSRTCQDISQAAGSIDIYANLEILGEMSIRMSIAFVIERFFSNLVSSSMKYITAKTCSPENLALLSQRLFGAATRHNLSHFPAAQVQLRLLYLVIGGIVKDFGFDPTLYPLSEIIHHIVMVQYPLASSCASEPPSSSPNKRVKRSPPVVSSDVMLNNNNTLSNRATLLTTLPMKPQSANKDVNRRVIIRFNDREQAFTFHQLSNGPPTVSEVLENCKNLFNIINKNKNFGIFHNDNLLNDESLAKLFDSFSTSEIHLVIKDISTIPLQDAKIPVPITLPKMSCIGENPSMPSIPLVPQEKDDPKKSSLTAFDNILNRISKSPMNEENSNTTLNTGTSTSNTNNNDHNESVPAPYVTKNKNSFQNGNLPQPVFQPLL
# Experiment: PBM E-score (8-mer binding enrichment) (E-score (-0.5 to 0.5)); higher = stronger / more preferred TF binding; most listed sequences are background and not binding sites
# Conditions: protein concentration: 200 nM; construct: GST-full length
# In short: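 For each ungapped eight-base word taken together with its reverse complement, the Universal PBM Analysis Suite assigned an E-score. Binding data came from GST-tagged yeast transcription factors, applied at about 100-200 nM, on universal all-10-mer Agilent arrays made double-stranded by primer extension. Fluorescent anti-GST marked bound protein, and scans were normalised with masliner.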
row,Sequence,PBM E-score
1,GCAATCCA,0.0419
2,GAAACTCA,0.00586
3,GTCATGAC,0.31
4,ACCAAATG,0.00534
5,ACCCTAGT,0.0534
6,CGAAACAA,0.079
7,AGACACGC,0.0967
8,AATGGTAT,0.0874
9,GAGACGCC,-0.0261
10,GTAACTCA,0.0483
11,TCCAGACA,-0.112
12,GACTTGTA,0.0565
13,AGCCCAGG,-0.322
14,AACTGAGT,0.182
15,CCTCCTCA,-0.1
16,AAAGTGCA,-0.22
17,ACCCATAC,0.222
18,ACTGCCCT,-0.0286
19,AAAAAGGC,-0.187
20,CAAACGGA,-0.171
21,ACACTGCG,0.0586
22,CTACCTCC,0.241

row,Sequence,PBM E-score
1,AAGGAGGG,0.0971
2,ATGTGATG,-0.0159
3,TCACCGGA,0.0906
4,GGAGAAAC,0.0248
5,CGCGGCGC,0.197
6,ACATAGAT,-0.0848
7,CAAGAGAC,-0.138
8,ATCGCTGA,0.00777
9,CCCCACAC,0.0119
10,CCCCTTTC,-0.177
11,TAGCTACA,0.0139
12,TAGCGAAA,-0.114
13,ACAGCTGT,0.0493
14,TCGGCCGA,0.252
15,ATCAAAGC,-0.089
16,CCTCAGTC,0.0647
17,GATGAAAA,0.0464
18,CTTCAACA,-0.00632
19,AAATGCTC,-0.219
20,CTTCTTAA,-0.11
21,AGCAATTC,-0.123
22,AGGGCGCG,0.00533

row,Sequence,PBM E-score
1,TGGGCTAA,-0.147
2,AACGGTCG,-0.028
3,CCTCGGCG,0.283
4,AGGAGCCC,-0.162
5,AAGTCGAC,0.17
6,AAAACACA,0.0118
7,AAAAAAAG,-0.0686
8,ATTCCATA,0.107
9,AAACTCAG,-0.108
10,CGCCCGAA,-0.0969
11,CCACCATC,0.0312
12,CGACGGCC,-0.0896
13,ACGAGCCG,0.119
14,ACAAGCTA,-0.14
15,ACTAGGTC,0.223
16,GATCGCCC,0.085
17,CGATTTAC,-0.168
18,AATGTTTA,-0.0247
19,ATTACCCA,0.262
20,TCTTATCA,-0.113
21,ATGCAGCA,0.079
22,CAACGGTG,-0.0847

row,Sequence,PBM E-score
1,CACCGCGA,0.0982
2,ACGTCAAT,-0.0555
3,AAAATTTC,-0.378
4,ACGGGGTG,0.256
5,TGAATTAA,0.027
6,CCTTCACC,-0.144
7,AGATTGGG,0.0236
8,AAAACGCT,-0.366
9,AGGAATTC,-0.0252
10,CAACTATA,-0.115
11,ACCGTCCA,0.0545
12,CAAGAAAC,0.0519
13,ATGCGGGC,0.115
14,CGGTGTTA,0.147
15,ACATCAGT,0.219
16,GTCCTGCA,-0.247
17,ACATTTCG,-0.193
18,ATGGTCCG,0.175
19,CCCCCCGA,-0.252
20,CGTACAAC,0.11
